Consider 23 compounds from article PMC4336329 (PLoS ONE, 2015).

The whole screen tested about 310,000 compounds, of which about 14,000 (4.5%) showed an effect of 50% or more. The effect is printed as a negative number. The list shows a part of the results.
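Further: peak tail current of the secondary pulse compared with the same well before compound.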

Chain of human ether-à-go-go-related gene (hERG) potassium channel (Q12809 whole entry, looked up): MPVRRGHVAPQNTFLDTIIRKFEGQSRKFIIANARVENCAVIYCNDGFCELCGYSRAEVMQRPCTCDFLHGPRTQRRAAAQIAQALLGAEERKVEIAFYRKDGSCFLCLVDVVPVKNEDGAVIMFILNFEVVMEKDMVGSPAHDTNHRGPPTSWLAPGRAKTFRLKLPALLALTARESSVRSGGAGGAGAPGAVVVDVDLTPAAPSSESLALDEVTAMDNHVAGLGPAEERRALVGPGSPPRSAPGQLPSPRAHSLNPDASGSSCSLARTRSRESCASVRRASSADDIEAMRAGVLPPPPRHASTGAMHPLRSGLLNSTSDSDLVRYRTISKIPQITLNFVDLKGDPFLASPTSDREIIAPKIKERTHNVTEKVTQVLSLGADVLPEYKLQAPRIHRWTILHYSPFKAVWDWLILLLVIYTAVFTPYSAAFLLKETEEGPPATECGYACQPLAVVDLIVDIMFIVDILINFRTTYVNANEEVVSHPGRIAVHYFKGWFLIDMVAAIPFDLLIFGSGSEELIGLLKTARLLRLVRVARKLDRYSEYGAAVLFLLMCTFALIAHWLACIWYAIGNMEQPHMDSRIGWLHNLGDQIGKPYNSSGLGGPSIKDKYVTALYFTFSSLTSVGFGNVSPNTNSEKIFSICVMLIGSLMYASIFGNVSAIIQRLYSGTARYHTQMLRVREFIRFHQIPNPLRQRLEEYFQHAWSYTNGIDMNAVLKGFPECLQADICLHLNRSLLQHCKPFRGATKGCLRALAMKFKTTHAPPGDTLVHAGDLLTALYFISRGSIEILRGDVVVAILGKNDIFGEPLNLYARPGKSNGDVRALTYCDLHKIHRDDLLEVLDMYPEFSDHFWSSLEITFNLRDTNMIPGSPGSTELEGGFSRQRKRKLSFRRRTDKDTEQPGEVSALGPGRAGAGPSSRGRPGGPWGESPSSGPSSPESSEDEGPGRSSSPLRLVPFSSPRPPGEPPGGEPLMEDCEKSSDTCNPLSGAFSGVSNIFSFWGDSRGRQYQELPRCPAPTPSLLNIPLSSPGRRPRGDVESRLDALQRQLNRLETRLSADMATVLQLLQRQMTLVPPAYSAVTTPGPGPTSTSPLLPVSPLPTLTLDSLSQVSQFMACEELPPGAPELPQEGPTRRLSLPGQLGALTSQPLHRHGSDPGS

The assay has as its target human ether-à-go-go-related gene (hERG) potassium channel (human, UniProt Q12809). Put plainly: primary screen, population patch clamp on CHO cells stably expressing hERG.
On to `COc1ccc(NCc2cc(=O)oc3cc(NC(C)=O)ccc23)cc1`, for which the “hERG current change (%, negative = inhibition) at 10uM” value worked out at 17.5%.
In the case of `CCOC(=O)N1CCN(C(=O)C2CCN(Cc3cccc(OCc4ccccc4)c3)CC2)CC1.O=C(O)C(=O)O`, the “hERG current change (%, negative = inhibition) at 10uM” value is recorded as -58.4%.
With `COC(=O)C(C(=O)OC)C(C[N+](=O)[O-])c1ccc(OC)c(OC)c1` (centres unmarked) the figure was -22.7%; with `CCc1ccc(/C([O-])=C(/C(=S)NCCN2CCOCC2)[n+]2ccccc2)cc1`, 16.8%.
Turning to `COc1ccccc1C(=O)NNC(=O)C(=O)N1CCCCC1`, the “hERG current change (%, negative = inhibition) at 10uM” value is reported as 3.18%.
Turning to `Fc1cnc(N/N=C/c2ccc(-c3ccc(Br)cc3)o2)nc1N1CCOCC1`, the “hERG current change (%, negative = inhibition) at 10uM” value is -15.8%.
With `CC(C)Oc1cccc(C(=O)N/N=C/c2coc3ccccc3c2=O)c1` the figure was 8.17%; with `COc1ccc(-c2csc(Nc3ccc(C)cn3)n2)cc1`, 10.3%.
As for `Nc1cc(=O)[nH]c(SCC(=O)N2CCCc3ccccc32)n1`, the “hERG current change (%, negative = inhibition) at 10uM” value was 7.33%.
With `O=C(NCCN1CCN(Cc2ccccc2)CC1)C1c2ccccc2C(=O)N2CCc3ccccc3C12` (centres unmarked) the figure was -14.5%; with `COC(=O)c1cc(C(=O)OCC(=O)NC(=O)NCc2ccccc2)cc([N+](=O)[O-])c1`, 1.58%; with `Cc1ccc(Oc2ncnc(N)c2[N+](=O)[O-])cc1`, 4.67%.
With `COc1ccc(C)cc1S(=O)(=O)Nc1cccc(C)c1` the figure was 9.91%.
Take `CCOC(=O)c1cnc(SC)nc1N1CCCC1`: the “hERG current change (%, negative = inhibition) at 10uM” value is reported as -21%.
For `CCC(=O)N1CCc2cc(S(=O)(=O)NCCC(=O)N3CCN(c4ccccc4)CC3)ccc21`, the “hERG current change (%, negative = inhibition) at 10uM” value is 11.5%.
Turning to `COC(=O)c1cc(NC(=O)c2cc(-c3ccccc3Cl)oc2C(F)(F)F)ccc1N1CCOCC1`, the “hERG current change (%, negative = inhibition) at 10uM” value is given as 12.9%.
With `Cc1cccc(C)c1OCC(=O)N/N=C/c1ccc2c(c1)OCO2`, the “hERG current change (%, negative = inhibition) at 10uM” value worked out at 8.9%.
Turning to `COC(=O)C1=C(C)NC(=O)NC1c1ccc(-c2ccc(Cl)cc2)o1` (centres unmarked), the “hERG current change (%, negative = inhibition) at 10uM” value amounted to 23%.
With `Cc1c(C(=O)O)sc2nc(CSc3ncc(C(F)(F)F)cc3Cl)[nH]c(=O)c12` the figure was 7.32%; with `CCOC(=O)N1CCN(C(=O)CS(=O)Cc2nc(-c3cccc(C)c3)oc2C)CC1` (centres unmarked), -9.37%; with `Cc1nn(CCc2nn[nH]n2)c2nc(-c3ccccc3)cc(C(F)(F)F)c12`, 19.3%.
Regarding `O=C(NCc1ccccc1)C1CCCN(S(=O)(=O)c2cccnc2)C1` (centres unmarked), the “hERG current change (%, negative = inhibition) at 10uM” value is -4.34%.
For `O=C(CNC(=O)c1cccnc1)N/N=C/c1cc(Br)c(O)c(Br)c1`, the “hERG current change (%, negative = inhibition) at 10uM” value is given as 24.5%.
